“And” between values parts separate entries of the source, which are not always exact repeats. Equal values may be shown once.
Key:
[1] = target: T1, Human sputum elastase (HSE) / Human Leukocyte Elastase (HLE) (Homo sapiens, UniProt P08246); experiment: Elastase Inhibition--In Vitro Method (hydrolysis of MeO-Suc-Ala-Ala-Pro-Val-pNA, microtiter format); type: biochemical; details: for % inhib. (5 ug/mL) 0% HSA / % inhib. (5 ug/mL) 0.5% HSA: 5 ug/mL compound; for % inhib. (5 ug/mL) 0.5% HSA: 0.5% HSA added
T1 construct: Human sputum elastase (HSE ) (Elasten Products Co., Pacific, Mo.); purchased Elasten Products Co., Pacific, Mo; host or cells: human sputum
T1 sequence (P08246 30-267): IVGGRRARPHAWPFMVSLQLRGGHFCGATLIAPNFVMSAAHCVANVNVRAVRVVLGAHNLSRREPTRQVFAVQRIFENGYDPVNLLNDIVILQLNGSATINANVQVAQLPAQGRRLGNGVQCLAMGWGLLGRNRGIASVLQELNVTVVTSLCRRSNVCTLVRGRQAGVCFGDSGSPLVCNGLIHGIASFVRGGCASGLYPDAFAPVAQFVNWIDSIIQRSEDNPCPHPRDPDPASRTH

[2] = target: T2, human neutrophil elastase (HNE) (Homo sapiens, UniProt P08246); experiment: Elastase Inhibition--Animal Model (acute hamster hemorrhage model, HNE instilled i.t.); type: in vivo, Syrian Golden Hamsters; details: compound 20 ug i.t. three to five minutes before 50 μg HNE i.t., lung lavage hemorrhage at 18 hours
T2 construct: purified preparations of human neutrophil elastase (HNE); purchased Elastin Products Co., Pacific, MO
T2 sequence (P08246 30-247 limits assumed): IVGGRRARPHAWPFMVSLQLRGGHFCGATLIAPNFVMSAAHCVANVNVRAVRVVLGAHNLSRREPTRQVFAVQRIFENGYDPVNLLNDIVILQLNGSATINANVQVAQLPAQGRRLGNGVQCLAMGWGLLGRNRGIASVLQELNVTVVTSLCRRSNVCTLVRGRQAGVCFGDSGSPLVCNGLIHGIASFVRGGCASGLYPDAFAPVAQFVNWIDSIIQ
Procedure: When instilled into the lungs of hamsters, purified preparations of human neutrophil elastase (HNE) will produce an emphysema like state. Acute challenge (18 hours) with 50 μg of HNE results in pulmonary hemorrhage which can be readily quantitated by measuring total RBC's (red blood count) and hemogloblin concentration of lung lavage samples.
HNE (obtained from Elastin Products Co., Pacific, MO) was diluted to 250 μg/mL in 0.9% sterile saline. Syrian Golden Hamsters, males, weighing approximately 90-130 grams, were obtained from Charles River Laboratories. The experiments described below are conducted using at least three animals per group.
Anesthesia required for the intratracheal administration of compounds and elastase was induced by the i.p. injection of Ketamine hydrochloride, 10 mg/100 gram body weight plus Xylazine, 1 mg/100 gram body weight.
Hamsters were anesthetized as described above and the trachea were surgically exposed. Test compounds were administered via 27g needle inserted directly into the trachea in 0.1 mL volume followed by 0.1 mL saline push. […]
Samples were concentrated by centrifugation (1500 rpm, 10 minutes) and brought up to 1.0 mL in saline. Homoglobin concentration was determined spectrophotometrically (540 nm) by the cyanmethemoglobin method using 200 μL sample to 2.5 mL cranmethoglobin reagent (Data Medical Associates, Arlington, Tx.).

| SMILES | % inhib. (5 ug/mL) 0% HSA [1] [%] | % inhib. (5 ug/mL) 0.5% HSA [1] [%] | % inhib. (20 ug, i.t.) [2] [%] | IC50 ([1]; Table I, 0.5 mM substrate, 15 minutes pre-incubation) |
| --- | --- | --- | --- | --- |
| CC(C)C(NC(=O)CN(C(=O)[C@@H](NC(=O)c1ccc(C(=O)NS(=O)(=O)c2ccc(Cl)cc2)cc1)C(C)C)C1CCCC1)C(=O)C(F)(F)F (single isomer, unassigned) [Cyclopentyl; p-[p-Cl(C6 H4)SO2 NHCO](C6 H4)CO; Diastereomer ] [(4-(4-Chlorophenyl)sulfonylaminocarbonylphenyl-1-oxomethyl]-L-Valyl-N-cyclopentyl-glycyl-N-[3-(1,1,1-trifluoro-4-methyl-2-oxypentyl) 1amide] | 99.8 | 99.7 | 99.0 | – |
| CC(C)C(NC(=O)CN(C(=O)[C@@H](NC(=O)c1ccc(C(=O)NS(=O)(=O)c2ccc(Cl)cc2)cc1)C(C)C)C1CCCC1)C(=O)C(F)(F)F (stereo partly drawn) [Cyclopentyl; p-[p-Cl(C6 H4)SO2 NHCO](C6 H4)CO] [(4-(4-Chlorophenyl)sulfonylaminocarbonylphenyl-1-oxomethyl]-L-Valyl-N-cyclopentyl-glycyl-N-[3-(1,1,1-trifluoro-4-methyl-2-oxypentyl) 1amide] | 100 | 99.8 | 99.2 | 0.066 µg/mL and 0.081 µg/mL |
